About 6,400 (1.6%) of roughly 410,000 compounds were called active. Inconclusive means that the source gave no clear call. Such entries were picked first, then a sample of the others. Calls come from the whole dose curve; as a rule, active = well fitted inhibition curve with a large enough effect; inconclusive = small, poorly fitted or top-dose-only effect; inactive = no such curve, though single readings can be large or run the other way. Potencies of inconclusive entries are doubtful fits and often do not repeat.
molecular target: Glucagon-like peptide 1 receptor (Homo sapiens) (UniProt P43220); test: qHTS of GLP-1 Receptor Inverse Agonists (Inhibition Mode); conditions: HEK293 GLP-1R CRE-luciferase, luminescence, 24 h, GLP-1R form is constitutively active; activity change, negative = inhibition: at 38.3 µM (top of the series) unless noted; note: nearly all actives have a fitted effect of over 55% in size
Procedure, shortened: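 HEK293 cells stably co-expressing a cAMP-responsive luciferase reporter and constitutively active GLP-1R were seeded, incubated 12 h, then exposed to compounds for 24 h at 37 C. Luminescence was read 12 min after detection reagent; inverse agonists lower signal.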
% is set by controls: 0 for no effect and ±100 for the full control effect; potency is the fitted concentration of half-maximal effect; tags give direction and shape of the fitted curve.

Chain of UniProt P43220 (P43220 whole entry, looked up): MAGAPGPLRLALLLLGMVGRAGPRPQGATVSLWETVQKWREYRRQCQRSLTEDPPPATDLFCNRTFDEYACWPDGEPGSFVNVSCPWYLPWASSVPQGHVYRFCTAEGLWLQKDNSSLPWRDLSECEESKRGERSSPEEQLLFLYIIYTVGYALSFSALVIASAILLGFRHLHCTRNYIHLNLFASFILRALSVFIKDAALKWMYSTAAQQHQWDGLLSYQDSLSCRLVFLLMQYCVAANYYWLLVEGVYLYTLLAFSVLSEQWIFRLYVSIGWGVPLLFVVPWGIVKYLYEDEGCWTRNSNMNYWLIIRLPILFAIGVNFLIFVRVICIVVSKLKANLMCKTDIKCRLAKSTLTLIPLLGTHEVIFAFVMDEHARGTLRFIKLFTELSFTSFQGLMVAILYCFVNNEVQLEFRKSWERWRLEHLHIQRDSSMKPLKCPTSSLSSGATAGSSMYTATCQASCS

Potency, active:
Cc1ccc(NC(=S)NC(=O)C2CC2)cc1Cl 10 µM, CC(C)N(C(=O)[C@H]1C[C@H](CC(=O)NC(C)(C)C)C(=O)N2CCc3c([nH]c4ccc(Cl)cc34)[C@]12C)C(C)C 11.2 µM, Cc1ccc(C2(C)NC(=O)N(CC(=O)Nc3ccc(Cl)c(S(=O)(=O)N4CCCCC4)c3)C2=O)cc1 (stereo not drawn) 10 µM

Potency, inconclusive:
COc1cccc(NC(=O)CN(C)C(=O)c2ccccc2-c2nc3ccccc3s2)c1 15.8 µM [inhibitor, single point], NC(=S)N/N=C/c1ccc(C23CC4CC(CC(C4)C2)C3)cc1 2.82 µM [inhibitor, full curve, poor fit], COc1cccc2sc(N3CCN(C(=O)C4COc5ccccc5O4)CC3)nc12 (stereo not drawn) 28.2 µM [inhibitor, single point], O=C(Nc1nnc(S(=O)(=O)N2CCCc3ccccc32)s1)c1ccccc1Br 10 µM [inhibitor, partial curve, poor fit], CC(C)c1ccc(NC(=O)c2ccc(NS(C)(=O)=O)cc2)cc1 5.62 µM [inhibitor, full curve, poor fit], CN(C)S(=O)(=O)Nc1ccc2c(c1)Cc1ccccc1-2 8.91 µM [inhibitor, single point], CCOC(=O)N1CCC(NS(=O)(=O)c2ccc(C)cc2)CC1 22.4 µM [inhibitor, single point], CC(OC(=O)c1ccccc1O)C(=O)Nc1ccc(Cl)cn1 (stereo not drawn) 31.6 µM [inhibitor, single point], CC1(C(=O)N/N=C/c2cc3c(cc2Br)OCO3)CC1(Br)Br (stereo not drawn) 17.8 µM [inhibitor, partial curve, poor fit], CCOc1ccccc1-c1nnc(SCc2ccc(Cl)cc2)o1 12.6 µM [inhibitor, single point], CC12CCC(C(=O)N(CC(O)CN3CCN(Cc4ccccc4)CC3)C1=O)C2(C)C (stereo not drawn) 1.58 µM [inhibitor, full curve, poor fit], CCOc1cc(S(=O)(=O)NCc2ccccc2)ccc1Br 11.2 µM [inhibitor, partial curve, poor fit], C(=C\c1ccccc1)/CN1CCN(C(c2nnnn2C2CCCCC2)C2CC2)CC1 (stereo not drawn) 28.2 µM [inhibitor, single point], O=C(C#Cc1ccccc1)NCc1ccccc1F 11.2 µM [inhibitor, single point], O=C(c1ccco1)N(Cc1ccc(Cl)cc1)Cc1ccco1 2.51 µM [inhibitor, partial curve, poor fit], CCOc1ccc2oc(C(=O)NCC(c3ccco3)N(C)C)c(C)c2c1 (stereo not drawn) 10 µM [inhibitor, partial curve, poor fit], NC(=O)CSc1nc2c(c(=O)n1-c1ccccc1)C1(CCCCC1)Cc1ccccc1-2 12.6 µM [inhibitor, partial curve, poor fit], CCOc1ccc(C(=O)NC(C(=O)NCCc2ccc(OC(F)F)cc2)C(C)C)cc1 (stereo not drawn) 14.1 µM [inhibitor, partial curve, poor fit], O=C1Nc2cc(Br)ccc2C1(O)c1ccccc1O (stereo not drawn) 11.2 µM [inhibitor, partial curve], O=C(NC1=C(Nc2ccc(Cl)cc2)C(=O)c2ccccc2C1=O)c1ccccc1 2.51 µM [inhibitor, full curve], Cc1ccc(N(Cc2ccccc2)C(=O)c2ccc(C)c(S(=O)(=O)N3CCOCC3)c2)cc1 7.94 µM [inhibitor, partial curve, poor fit], CCOC(=O)c1cnn(-c2ccccc2)c1-n1cccc1C(=O)C(=O)Nc1ccccc1C(F)(F)F 12.6 µM [inhibitor, partial curve, poor fit], CCC(NC(=O)COC(=O)C1CC2CCCC(C1)C2=O)c1ccc(Br)cc1 (stereo not drawn) 0.501 µM [inhibitor, full curve, poor fit], Cc1ccc2c(c1)cc(CN(Cc1cccs1)C(=O)c1ccco1)c1nnnn12 28.2 µM [inhibitor, single point], c1ccc(Cn2c(CNc3nc4ccccc4n3CCN3CCCCC3)nc3ccccc32)cc1 11.2 µM [inhibitor, partial curve, poor fit], Cc1ccc([C@H]2C[C@H](n3cc(-c4ccc(F)cc4)nn3)[C@@H](O)CN2C(=O)C2CCCCC2)cc1 28.2 µM [inhibitor, single point], Fc1ccccc1OCCn1c(=S)[nH]c2ccccc21 20 µM [inhibitor, single point], Cc1ccc(NC(=S)N(CCN(C)C)Cc2cccs2)c(C)c1 15.8 µM [inhibitor, single point], c1ccc(CCn2nnnc2CN2CCCc3ccccc32)cc1 10 µM [inhibitor, partial curve, poor fit], CCOC(=O)c1[nH]c(C)c(CC(C)C)c1C 31.6 µM [inhibitor, single point], CC(C)C1C(=O)N(Cc2cn(CCC3OCCO3)nn2)CCS(=O)(=O)N1Cc1ccc(-c2ccc(Cl)cc2)cc1 (stereo not drawn) 12.6 µM [inhibitor, partial curve, poor fit], CC(C)(C)c1ccc(CC(=O)N2CCC2(C)C(=O)NS(=O)(=O)c2ccc(Cl)cc2)cc1 (stereo not drawn) 12.6 µM [inhibitor, partial curve, poor fit], Cn1cnc([N+](=O)[O-])c1S(=O)(=O)Nc1ccccc1 22.4 µM [inhibitor, single point], N#CCCN(Cc1ccccc1)C(C(=O)NC1CCCCC1)c1cc2ccccc2o1 (stereo not drawn) 10 µM [inhibitor, partial curve, poor fit], Cc1ccc(-c2csc(NC(=O)c3ccc(F)cc3)c2C(=O)O)cc1 28.2 µM [inhibitor, single point], O=[N+]([O-])c1ccccc1CN1CCN(Cc2ccc3ccccc3c2)CC1 12.6 µM [inhibitor, partial curve, poor fit], Cn1c(-c2ccc(F)cc2)cnc1SCC(=O)N1CCCCC1 28.2 µM [inhibitor, single point], CC(CCN(C)C)OC(=O)c1ccc(C(C)c2ccccc2)o1 (stereo not drawn) 0.501 µM [inhibitor, full curve, poor fit], Clc1ccccc1Cn1nnc(-c2cccs2)n1 28.2 µM [inhibitor, single point], Oc1ccc(N2CCN(Cc3c(-c4ccccc4)nc4ccccn34)CC2)cc1 8.91 µM [inhibitor, partial curve, poor fit], Cc1ccc(C)c(Cn2nc3c4ccccc4n(Cc4ccccc4)cc-3c2=O)c1 28.2 µM [inhibitor, single point], CCN(CC)CCC#CC(O)(c1ccccc1)C1CCCCC1 (stereo not drawn) 7.94 µM [inhibitor, partial curve, poor fit], O=C(NCCN1CCc2ccccc2C1)Nc1ccc(F)cc1 28.2 µM [inhibitor, single point], O=C(Nc1nc2ccc(F)cc2s1)C1CCN(S(=O)(=O)c2cc([N+](=O)[O-])ccc2Cl)CC1 11.2 µM [inhibitor, single point], c1ccc(-n2cnc3cc(NCc4ccco4)ccc32)cc1 28.2 µM [inhibitor, single point], Cc1ccc(-n2cccn2)c(CN2CCCC(C(=O)c3sccc3C)C2)c1 (stereo not drawn) 11.2 µM [inhibitor, partial curve, poor fit]

Activity change, negative = inhibition, inactive:
CN(C)S(=O)(=O)c1ccc(NC(=O)CN2C(=O)NC3(CCCC3)C2=O)cc1 -6.15%, Cc1cc(C)cc(-n2nnc(C(=O)NCc3ccc4c(c3)OCO4)c2N)c1 5.64%, CCOc1cccc(C2c3c(oc4ccccc4c3=O)C(=O)N2c2nc(C)c(C(=O)OC)s2)c1 (stereo not drawn) 1.01%, CC(C)C[C@H]1CN([C@@H](Cc2ccccc2)CN2CCC[C@H]2CN2C(=O)C(=O)NC[C@@H]2Cc2ccccc2)C(=O)C(=O)N1CCc1ccccc1 26.2%, Cc1sc(NC(=O)Cn2c(=O)oc3ccccc32)nc1-c1ccc(Cl)cc1 13.3%, CCOc1cc(CNc2ccc(O)cc2)cc(Br)c1OCc1ccccc1 -6.05%, CC(=O)Oc1ccc2c(c1)C(=O)c1ccccc1CO2 70.8%, CCCN(CCC)C(=O)Cn1c(=O)n(Cc2ccc(C(=O)NCCc3ccc(OC)c(OC)c3)cc2)c(=O)c2ccccc21 1.06%, CN(C)CCCN(C(=O)/C=C/c1cccs1)c1nc2c(F)cccc2s1 -54.4%, O=C(CCN1C(=O)/C(=C/c2ccccc2Cl)SC1=S)N1CCCC1 -24%, COc1ccc2c(COC(=O)[C@@H]3CCCN3S(=O)(=O)c3ccc(Cl)cc3)cc(=O)oc2c1 0.398%, CC1=C/C(=C\c2ccc(Br)o2)C(=O)O1 15.5%, CN(N=Nc1ccc([N+](=O)[O-])cc1)c1ccccc1 13%, COc1ccc(CN(C)CC(=O)Nc2sc3c(c2C#N)CCC3)cc1OC 19.7%

From PubChem BioAssay AID624417 (National Center for Advancing Translational Sciences (NCATS), 2012)
